Data taken from PubChem BioAssay AID504339 (National Center for Advancing Translational Sciences (NCATS), 2011).
The whole screen tested about 390,000 compounds, of which about 17,000 (4.4%) were called active. Inconclusive results, whose numbers are uncertain, are shown with a selection of clear calls. The call rests on the fitted dose curve; in most records, active means well fitted inhibition curve with a large enough effect; inconclusive means small, poorly fitted or top-dose-only effect; inactive means no such curve, though single readings can be large or run the other way. Potencies of inconclusive entries are doubtful fits and often do not repeat. Numbered stars: 1 amine (or outer) side, 2 acyl side, 3 side chain; on linkers, the order of the positions; unused ones are H or OH. Bridge positions count the residues as written; N and C are the ends. Square brackets hold non-standard residues; d marks the D form. Peptide text beside a SMILES is read from it. ξ: configuration not given here. hSer(Ph(2-I,4-NO2,6-CO)) = O=C([C@H](CCOc1c(I)cc([N+](=O)[O-])cc1C(=O)[*:3])N[*:1])[*:2]; ξD = NC(CC(=O)O)C(=O)O

target: Lysine-specific demethylase 4A (Homo sapiens) (UniProt O75164); assay: qHTS Assay for Inhibitors of JMJD2A-Tudor Domain; conditions: AlphaScreen JMJD2A-Tudor / H3K4me3 peptide binding; activity change, negative = inhibition: at 114 µM (top of the series); further: nearly all actives have a fitted effect of over 50% in size
Sequence of UniProt O75164 (O75164 whole entry, looked up, the tested form may be a part): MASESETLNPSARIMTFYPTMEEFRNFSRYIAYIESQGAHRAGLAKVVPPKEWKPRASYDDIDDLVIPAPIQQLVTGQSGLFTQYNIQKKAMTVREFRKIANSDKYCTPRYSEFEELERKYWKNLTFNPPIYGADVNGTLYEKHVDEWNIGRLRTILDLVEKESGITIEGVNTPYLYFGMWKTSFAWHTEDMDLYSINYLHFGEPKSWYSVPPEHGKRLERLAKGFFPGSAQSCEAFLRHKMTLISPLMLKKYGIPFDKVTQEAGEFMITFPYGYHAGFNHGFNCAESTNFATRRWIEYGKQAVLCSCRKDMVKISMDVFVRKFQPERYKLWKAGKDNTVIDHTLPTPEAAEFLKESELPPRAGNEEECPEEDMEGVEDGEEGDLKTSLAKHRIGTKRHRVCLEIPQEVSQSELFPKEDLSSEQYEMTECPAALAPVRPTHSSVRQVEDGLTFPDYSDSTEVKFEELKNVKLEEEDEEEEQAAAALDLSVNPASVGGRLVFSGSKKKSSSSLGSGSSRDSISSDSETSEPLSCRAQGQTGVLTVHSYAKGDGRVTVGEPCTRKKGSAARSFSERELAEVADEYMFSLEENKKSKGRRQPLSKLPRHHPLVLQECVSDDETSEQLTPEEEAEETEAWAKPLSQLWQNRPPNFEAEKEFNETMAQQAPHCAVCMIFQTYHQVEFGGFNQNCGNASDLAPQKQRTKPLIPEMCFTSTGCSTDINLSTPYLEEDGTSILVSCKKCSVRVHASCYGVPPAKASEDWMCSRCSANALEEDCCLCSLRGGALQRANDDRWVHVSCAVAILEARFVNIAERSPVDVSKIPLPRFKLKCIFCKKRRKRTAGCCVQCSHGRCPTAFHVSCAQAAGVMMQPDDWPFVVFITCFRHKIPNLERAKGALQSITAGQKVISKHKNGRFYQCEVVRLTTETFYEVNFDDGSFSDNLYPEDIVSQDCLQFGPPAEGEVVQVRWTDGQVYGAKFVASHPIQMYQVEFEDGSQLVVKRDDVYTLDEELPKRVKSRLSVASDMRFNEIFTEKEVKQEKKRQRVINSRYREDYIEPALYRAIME
On the % scale 0 is the no-effect control and ±100 the full control effect; potency means the concentration at half of the fitted maximal effect; tags describe the fitted curve by direction and shape.

SMILES	Potency	activity change, negative = inhibition
Cc1cc(=O)[nH]c(-n2[nH]c(C)cc2=O)n1	active: 44.7 µM	
CC(C)CC(C(=O)NCC1CCN(Cc2ccc(F)cc2)CC1)N1Cc2ccccc2C1=O (centres undefined)		inactive: 4.62%
COc1ccc(-n2ccnc2SCC(=O)NCc2ccco2)c(OC)c1	inconclusive: 100 µM [inhibitor, single point]	
CC(C)=CCC/C(C)=C/CNC(=O)CC1C[C@H](C(=O)N2CCOCC2)[C@@]2(C)c3[nH]c4ccccc4c3CCN2C1=O (some centres undefined)	inconclusive: 79.4 µM [inhibitor, partial curve]	
O=C(O)c1ccc2c(c1)N(Cc1ccccc1)C(=O)c1ccccc1S2=O (centres undefined)	inconclusive: 50.1 µM [inhibitor, partial curve]	
CCOc1nc(Nc2ccc(OC)c(Cl)c2)nc(N2CCN(c3ccc(OC)cc3)CC2)n1	active: 35.5 µM	
O=C(CCc1ccccc1)NNC(=O)c1ccc(NC(=O)c2ccccc2)cc1	inconclusive: 44.7 µM [inhibitor, partial curve, poor fit]	
COc1cc(CNCCSc2nnnn2C)ccc1OCc1ccc(Cl)cc1Cl	inconclusive: 89.1 µM [inhibitor, partial curve]	
CC(C(=O)Nc1ccc2c(c1)OCO2)N(C)CC(=O)Nc1ccc(Cl)cc1 (centres undefined)	active: 2.24 µM	
O=[N+]([O-])c1ccc(Sc2ccccc2Cl)nc1	inconclusive: 31.6 µM [inhibitor, full curve]	
Cc1ccc(/C([O-])=C(/C(=S)NCc2ccccc2)[n+]2cccc(CO)c2)cc1[N+](=O)[O-]	inconclusive: 89.1 µM [inhibitor, partial curve]	
c1cnc2c(C3NCCc4c3[nH]c3ccccc43)cccc2c1 (centres undefined)	inconclusive: 56.2 µM [inhibitor, partial curve]	
COc1ccc(/C=C2\SC(=S)N(CCC(=O)Nc3cccc(C(=O)O)c3)C2=O)cc1	inconclusive: 31.6 µM [inhibitor, partial curve]	
COC(=O)C[C@H](NC(=O)Cn1cnc2c(SC)nc(N)nc21)C(=O)OC		inactive: -15.8%
Cc1cc(C(=O)COC(=O)C2=COCCO2)c(C)n1-c1ccccc1	inconclusive: 50.1 µM [inhibitor, partial curve]	
Cc1ccc(C)c(SCC(=O)Nc2cccnc2Cl)c1		inactive: 15.5%
On1onc2c3cc(-c4ccccc4)nc3ccc21	inconclusive: 14.1 µM [inhibitor, full curve]	
Cc1n[nH]c(=S)n1/N=C/c1ccccc1	active: 3.98 µM	
Cc1nc(NC(=O)C2CCCC2)sc1Cc1ccc2c(c1)OCO2	inconclusive: 28.2 µM [inhibitor, partial curve]	
COc1cccc(NC(=O)CCS(=O)(=O)c2ccc(Br)cc2)c1		inactive: -11.7%
COc1ccccc1C(=O)NC(=S)Nc1ccc(NC(=O)c2ccco2)cc1		inactive: -6.38%
COc1ccc([C@H]2CC(=O)C=C(c3ccc4ncccc4c3)C2)cc1OC	inconclusive: 89.1 µM [inhibitor, partial curve]	

SMILES	Potency	activity change, negative = inhibition
O=C1CCCc2c1nc(-c1ccccc1F)n2O		inactive: -3.01%
Cc1n[nH]c(C)c1S(=O)(=O)N(C)Cc1ccco1	inconclusive: 89.1 µM [inhibitor, single point]	
O=C(NCc1ccccn1)C(=O)Nc1nc(C23CC4CC(CC(C4)C2)C3)cs1		inactive: -23.4%
Cn1cccc1C(=S)N=P(C1CCCCC1)(N1CCOCC1)N1CCOCC1	active: 35.5 µM	
NC(=O)C(CC(=O)O)NC(=O)[C@@H]1CCOc2c(I)cc([N+](=O)[O-])cc2C(=O)N[C@@H](CCC(=O)O)C(=O)N[C@@H](CO)C(=O)N1 (some centres undefined) (ES[hSer(Ph(2-I,4-NO2,6-CO))][ξD]-NH2; lactam N-3)	inconclusive: 89.1 µM [inhibitor, single point]	
O=C(Nc1cccc(F)c1)c1cc(-c2ccco2)nc2ccccc12	inconclusive: 56.2 µM [inhibitor, partial curve]	
CC(=O)Nc1ccc(-c2csc(N/N=C(/C)c3ccccc3)n2)cc1	inconclusive: 8.91 µM [inhibitor, full curve, poor fit]	
Cc1c(C)n(CCc2ccccc2)c2ncnc(NCCCO)c12	inconclusive: 56.2 µM [inhibitor, partial curve]	
COCCCn1c(=S)[nH]c2ccc(N3CCOCC3)cc2c1=O	inconclusive: 56.2 µM [inhibitor, partial curve]	
CCc1ccccc1NC1Nc2cc(C)nn2S1 (centres undefined)	inconclusive: 3.55 µM [inhibitor, partial curve, poor fit]	
CC(=O)c1ccc(S(=O)(=O)N2Cc3ccccc3CC2C(=O)O)cc1 (centres undefined)	active: 17.8 µM	
Cc1cccc(CNC(=O)CCCN2C(=O)CCn3nc(-c4cccn4C)cc32)c1	inconclusive: 50.1 µM [inhibitor, partial curve]	
O=C(Nc1ccccc1)c1cccnc1N1CCOCC1	inconclusive: 89.1 µM [inhibitor, partial curve]	
Cc1ccc2c(c1)c1c3n2CCN(C(=O)c2cccc(C(F)(F)F)c2)C3CCC1 (centres undefined)	inconclusive: 25.1 µM [inhibitor, full curve]	
COc1ccc(N2CCN(Cc3nnc(-c4ccc5c(c4)OCO5)o3)CC2)cc1	inconclusive: 4.47 µM [inhibitor, full curve, poor fit]	
CCOc1c(Cl)cc(C(=O)N(Cc2ccc(N(C)C)cc2)Cc2ccco2)cc1Cl	active: 12.6 µM	
O=C(COc1cc(F)ccc1[N+](=O)[O-])Nc1ccc(N2CCCCC2)cc1	active: 39.8 µM	
Cc1[nH][nH]c(=O)c1C(c1ccc(-c2cccc(Cl)c2)o1)c1c(C)[nH][nH]c1=O	active: 44.7 µM	
CC1CCN(CCCCOc2ccc(Br)cc2)CC1	active: 5.01 µM	
COc1ccc(-c2noc(C)c2-c2ccc3ccccc3n2)c(O)c1	inconclusive: 79.4 µM [inhibitor, partial curve]	
COc1cc(-c2ncc3ccccn23)cc(OC)c1OC	active: 11.2 µM	
COc1ccc(-c2csc(NC(C)c3nc4cc(Cl)c(N5CCCCC5)cc4n3CCCO)n2)cc1 (centres undefined)	inconclusive: 56.2 µM [inhibitor, partial curve]	
